This is one part of the list. These are noisy estimates, calculated here from bound and input reads.

The target in the test is T1, Pho4 (S. cerevisiae) (UniProt P07270).
T1 sequence: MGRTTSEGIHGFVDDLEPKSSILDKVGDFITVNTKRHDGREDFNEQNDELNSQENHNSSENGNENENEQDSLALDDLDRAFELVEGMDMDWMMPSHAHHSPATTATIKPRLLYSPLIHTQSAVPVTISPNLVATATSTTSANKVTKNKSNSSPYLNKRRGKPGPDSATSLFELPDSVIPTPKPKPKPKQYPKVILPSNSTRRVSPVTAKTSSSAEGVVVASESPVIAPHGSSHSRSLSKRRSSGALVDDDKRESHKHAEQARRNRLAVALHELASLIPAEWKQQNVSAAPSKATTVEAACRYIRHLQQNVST
Briefly: relative binding free energy (BET-seq); higher = weaker binding. The settings on record: reference: library average.
Regarding GGGAACACGTGGTCAG, the “relative binding free energy” value turned out to be 0.18 kcal/mol. Next, GAGAGCACGTGGACGG: 0.07 kcal/mol; GTGGTCACGTGGGGTT: 0.08 kcal/mol. For the sequence AATGCCACGTGTATTG, the “relative binding free energy” value was -0.03 kcal/mol. In the case of CTTGGCACGTGGTCCG it was -0.17 kcal/mol; in that of CCAGGCACGTGGGGGG, -0.15 kcal/mol; in that of TTGGACACGTGGACTT, 0.12 kcal/mol. With GTCATCACGTGGATTT, the “relative binding free energy” value was found to be 0.04 kcal/mol. On to TATATCACGTGCTTGG, for which the “relative binding free energy” value was determined as 0.13 kcal/mol. For the sequence TTTTGCACGTGGCTTT, the “relative binding free energy” value was -0.17 kcal/mol. Consider GGATTCACGTGGTAAA, for which the “relative binding free energy” value stood at 0.15 kcal/mol. As to CATGGCACGTGGGAAT, the “relative binding free energy” value is -0.03 kcal/mol. For ACCGGCACGTGTGGTG, the “relative binding free energy” value stood at 0.05 kcal/mol. As to GGGTCCACGTGGTCGG, the “relative binding free energy” value was -0.08 kcal/mol. Take TTGCACACGTGGCTGT: the “relative binding free energy” value worked out at 0.01 kcal/mol. In the case of TGTAGCACGTGCCGGT, the “relative binding free energy” value was -0.26 kcal/mol. Next, GCAATCACGTGTGGCG: 0.37 kcal/mol; TATGTCACGTGTGTTC: 0.11 kcal/mol; TACGTCACGTGTAGGT: 0.08 kcal/mol.

Take AATTACACGTGGTTTC: the “relative binding free energy” value came out at 0.21 kcal/mol. On to TTCGGCACGTGATTGT, for which the “relative binding free energy” value is -0.02 kcal/mol. Turning to GGATTCACGTGCAGGG, the “relative binding free energy” value worked out at 0.33 kcal/mol.

With TGAAACACGTGGGTGA, the “relative binding free energy” value is 0.08 kcal/mol.

Turning to TGTTCCACGTGTAGGC, the “relative binding free energy” value turned out to be 0.06 kcal/mol.

With GTCGGCACGTGGGAGT, the “relative binding free energy” value is -0.1 kcal/mol. Turning to AAGGGCACGTGGGTTC, the “relative binding free energy” value is -0.12 kcal/mol.

As to TTTTACACGTGTTCGG, the “relative binding free energy” value stood at 0.08 kcal/mol.

Consider TTCGGCACGTGCAGGG, for which the “relative binding free energy” value was -0.05 kcal/mol.

For the sequence GTATTCACGTGTGACG, the “relative binding free energy” value is 0.32 kcal/mol. CTGTTCACGTGTAAGT: the “relative binding free energy” value worked out at 0.3 kcal/mol. As to TTATACACGTGGTATT, the “relative binding free energy” value was 0 kcal/mol. On to GGTTTCACGTGGATGG, for which the “relative binding free energy” value turned out to be 0.35 kcal/mol. For CGTTGCACGTGGTGTT, the “relative binding free energy” value is -0.03 kcal/mol. Consider TTAGACACGTGTCTTG, for which the “relative binding free energy” value was 0.05 kcal/mol.

GGTCGCACGTGAAAGT: the “relative binding free energy” value is 0.24 kcal/mol. Consider GGTGACACGTGGCGCA, for which the “relative binding free energy” value came out at 0.03 kcal/mol. Regarding TCTGTCACGTGAATGT, the “relative binding free energy” value worked out at 0.23 kcal/mol. Turning to TGAGGCACGTGAAGTA, the “relative binding free energy” value was determined as 0.24 kcal/mol. Regarding TCAGGCACGTGTCGGT, the “relative binding free energy” value is -0.09 kcal/mol.

For the sequence GTGTGCACGTGAGGAA, the “relative binding free energy” value turned out to be 0.26 kcal/mol. As to GGAAACACGTGGTTTG, the “relative binding free energy” value amounted to 0 kcal/mol.

On to AAATTCACGTGGGTGG, for which the “relative binding free energy” value amounted to 0.17 kcal/mol. For the sequence ATGTTCACGTGTGACT, the “relative binding free energy” value turned out to be 0.37 kcal/mol. For ACAGTCACGTGAAAGG, the “relative binding free energy” value amounted to 0.33 kcal/mol. Turning to CTTGGCACGTGAGTGA, the “relative binding free energy” value is 0.12 kcal/mol. For the sequence CATTTCACGTGTTAGA, the “relative binding free energy” value amounted to 0.4 kcal/mol. In the case of GTTTGCACGTGAAATG it was 0.22 kcal/mol; in that of GTATTCACGTGTGAGA, 0.37 kcal/mol. Turning to TTCTACACGTGTGGGG, the “relative binding free energy” value worked out at 0.26 kcal/mol.

For the sequence GTTGACACGTGTCTTG, the “relative binding free energy” value is 0.12 kcal/mol.

With ATTTTCACGTGTCAGT, the “relative binding free energy” value came out at 0.27 kcal/mol.

For TTTCTCACGTGGCGGT, the “relative binding free energy” value stood at 0.27 kcal/mol. For the sequence GTGTCCACGTGAGAGT, the “relative binding free energy” value worked out at 0.18 kcal/mol.

In the case of AAGGTCACGTGGGAAA, the “relative binding free energy” value is 0.23 kcal/mol.

GGAAACACGTGCGGGG: the “relative binding free energy” value was 0 kcal/mol.

On to AGTAGCACGTGGAATA, for which the “relative binding free energy” value came out at 0.11 kcal/mol. As to TGTGGCACGTGATGTG, the “relative binding free energy” value was 0.04 kcal/mol.

As for GGGCTCACGTGTTTTG, the “relative binding free energy” value came out at 0.18 kcal/mol. As to TTGGCCACGTGTTTCT, the “relative binding free energy” value amounted to 0.09 kcal/mol.

GGGGTCACGTGTGTGT: the “relative binding free energy” value was determined as 0.18 kcal/mol.

With TTACGCACGTGTGAGG, the “relative binding free energy” value was -0.1 kcal/mol.

Regarding TTTATCACGTGGATGC, the “relative binding free energy” value is 0.21 kcal/mol. In the case of ATTGTCACGTGCTGTA it was -0.04 kcal/mol. With TTATACACGTGGTCTA, the “relative binding free energy” value is -0.07 kcal/mol. With GCATACACGTGTTGGG, the “relative binding free energy” value is 0.06 kcal/mol. For AGGAACACGTGGTCGG, the “relative binding free energy” value is 0.05 kcal/mol.

Turning to CCTGTCACGTGATGTG, the “relative binding free energy” value turned out to be 0.11 kcal/mol. With TTTACCACGTGGGGAG, the “relative binding free energy” value was -0.07 kcal/mol.

Consider ATCGGCACGTGTGAAA, for which the “relative binding free energy” value came out at 0.16 kcal/mol.

For the sequence TTTTGCACGTGTGTTC, the “relative binding free energy” value came out at 0.07 kcal/mol. In the case of TGTGCCACGTGCGGTT it was -0.13 kcal/mol; in that of GTTACCACGTGTTTGG, -0.1 kcal/mol.

TGGAGCACGTGATGTA: the “relative binding free energy” value worked out at 0.1 kcal/mol. In the case of AGGGACACGTGGGTTC it was -0.05 kcal/mol; in that of GAAGTCACGTGATTGT, 0.22 kcal/mol; in that of GATGGCACGTGAATAT, 0.24 kcal/mol. In the case of CGGGTCACGTGCGTTT, the “relative binding free energy” value amounted to 0.11 kcal/mol. Take GGAGTCACGTGAATAT: the “relative binding free energy” value amounted to 0.47 kcal/mol. In the case of TGACGCACGTGCGGGG, the “relative binding free energy” value is -0.18 kcal/mol. Next, TATGACACGTGTTCAG: 0.04 kcal/mol; AGTGTCACGTGGATAA: 0.16 kcal/mol. TATAGCACGTGGCGTA: the “relative binding free energy” value was -0.2 kcal/mol. Turning to TTTATCACGTGTATCA, the “relative binding free energy” value stood at 0.01 kcal/mol.

Turning to TCAGTCACGTGTTTGA, the “relative binding free energy” value was -0.04 kcal/mol. As to GTTAACACGTGAGTAT, the “relative binding free energy” value was 0.28 kcal/mol. As for TGAAACACGTGTAGGC, the “relative binding free energy” value amounted to 0.21 kcal/mol.

Turning to GGGATCACGTGGTTGC, the “relative binding free energy” value was 0.15 kcal/mol.

On to GGGCGCACGTGGTGTA, for which the “relative binding free energy” value is -0.19 kcal/mol. Regarding GGAAGCACGTGGTTGG, the “relative binding free energy” value is -0.22 kcal/mol.

In the case of TCTGGCACGTGTTTTT, the “relative binding free energy” value worked out at 0 kcal/mol. For AGGTTCACGTGTCTGA, the “relative binding free energy” value came out at 0.36 kcal/mol. GGGATCACGTGTTTCG: the “relative binding free energy” value was 0.15 kcal/mol.

In the case of TCGGACACGTGGTTGT, the “relative binding free energy” value was 0.11 kcal/mol. In the case of TACGTCACGTGTTATG it was 0.11 kcal/mol. As for TGCTACACGTGGTTAT, the “relative binding free energy” value was determined as 0.1 kcal/mol. In the case of TTTTACACGTGGGTTT it was 0.01 kcal/mol; in that of GAAAGCACGTGTAGTA, 0.05 kcal/mol; in that of GCGTGCACGTGGATGG, -0.12 kcal/mol.

Take GGTGACACGTGTGGTT: the “relative binding free energy” value worked out at 0.21 kcal/mol.

Regarding GGTCGCACGTGTTGTT, the “relative binding free energy” value stood at 0.09 kcal/mol. Take TAGGTCACGTGGATAT: the “relative binding free energy” value worked out at 0.07 kcal/mol. For the sequence ACTTGCACGTGCGGGA, the “relative binding free energy” value came to 0.11 kcal/mol. With GCTTGCACGTGTATAG, the “relative binding free energy” value came to 0 kcal/mol.

On to TTTAGCACGTGCGGCG, for which the “relative binding free energy” value was -0.07 kcal/mol. In the case of TAGAACACGTGAATGG it was 0.37 kcal/mol; in that of ATGTGCACGTGGGGAG, -0.17 kcal/mol. In the case of GGCCTCACGTGTTGTG, the “relative binding free energy” value is 0.09 kcal/mol. Take TTGCGCACGTGTGTAG: the “relative binding free energy” value was -0.08 kcal/mol.

On to GGACACACGTGGATGT, for which the “relative binding free energy” value turned out to be 0.02 kcal/mol. Next, CGGGTCACGTGTGCGG: 0.12 kcal/mol; AGGAGCACGTGGGGAT: -0.13 kcal/mol; GTTGGCACGTGGATGG: -0.09 kcal/mol. Regarding ACATGCACGTGGCGGT, the “relative binding free energy” value is -0.18 kcal/mol. In the case of TTAATCACGTGCGGGT it was 0.14 kcal/mol; in that of GAAGTCACGTGTATAG, 0.2 kcal/mol.

(Values after the BET-seq Pho4 binding data (Le et al. 2018).)
